26 compounds from the antibiotic and cytotoxicity screens of Wong et al. (2023) can be followed below.

One test concerns HSkMC. As to the kind of experiment: cytotoxicity call (relative viability < 0.9). The note with it: 10 µM.
A further test concerns HepG2. The test is described as follows: cytotoxicity call (relative viability < 0.9). The note with it: 10 µM.
Another test deals with S. aureus RN4220. The test is described as follows: growth inhibition call (relative growth <= 0.2). The settings on record: 50 µM.

The other results are listed elsewhere or left out.

On to `Cn1cnc(S(=O)(=O)N2C[C@@H](O)COC[C@@H]3O[C@@H](CC(=O)NCc4ccc(F)cc4)CC[C@H]32)c1`, for which the cytotoxicity call with HSkMC and in the test on HepG2 was “inactive” each time. In addition, the growth inhibition call with S. aureus RN4220 is “inactive”.

As to `C[C@H](N)c1ccc(Cl)cc1`, the cytotoxicity call in the test on HSkMC and with HepG2 was “inactive” each time. Further, in the test with S. aureus RN4220, the growth inhibition call is “inactive”.

`COc1ccc(S(=O)(=O)N(C)C[C@@H]2Oc3c(NC(=O)C4CCOCC4)cccc3C(=O)N([C@H](C)CO)C[C@@H]2C)cc1`: the cytotoxicity call with HSkMC and in the test with HepG2 was “inactive” each time. For the same compound, in the test on S. aureus RN4220, the growth inhibition call is “inactive”.

With `C[C@H](CO)N1C[C@H](C)[C@H](CN(C)S(=O)(=O)c2cn(C)cn2)OCCCC[C@H](C)Oc2ccc(NS(=O)(=O)c3ccc(F)cc3)cc2C1=O`, the cytotoxicity call with HSkMC and in the test on HepG2 was “inactive” throughout. Moreover, the growth inhibition call in the test on S. aureus RN4220 was “inactive”.

For the compound `Cc1noc(C)c1S(=O)(=O)Nc1ccc2c(c1)C(=O)N([C@@H](C)CO)C[C@H](C)[C@@H](CN(C)Cc1ccccc1)OCCCC[C@@H](C)O2`, the cytotoxicity call in the test on HSkMC and with HepG2 was “inactive” in each case. Moreover, the growth inhibition call in the test with S. aureus RN4220 is “inactive”.

As for `Cc1noc(C)c1S(=O)(=O)N(C)C[C@H]1Oc2ccc(NC(=O)NC(C)C)cc2CC(=O)N([C@@H](C)CO)C[C@H]1C`, the cytotoxicity call with HSkMC and with HepG2 was “inactive” throughout. For the same compound, the growth inhibition call in the test with S. aureus RN4220 is “inactive”.

Regarding `CC(C)NC(=O)N(C)C[C@@H]1Oc2ccc(NC(=O)Nc3ccc4c(c3)OCO4)cc2CC(=O)N([C@H](C)CO)C[C@@H]1C`, the cytotoxicity call with HSkMC and in the test on HepG2 was “inactive” each time. Moreover, the growth inhibition call in the test with S. aureus RN4220 is “inactive”.

Turning to `C[C@H](CO)N1C[C@H](C)[C@H](CN(C)C(=O)Nc2cccc3ccccc23)Oc2c(NC(=O)C3CCCCC3)cccc2C1=O`, the cytotoxicity call with HSkMC and with HepG2 was “inactive” each time. Besides, the growth inhibition call in the test on S. aureus RN4220 is “inactive”.

For the compound `C[C@@H]1CN([C@@H](C)CO)C(=O)c2cc(NC(=O)CCC(F)(F)F)ccc2O[C@@H](C)CCCCO[C@H]1CN(C)CC1CCCCC1`, the cytotoxicity call in the test on HSkMC and in the test with HepG2 was “inactive” throughout. Moreover, the growth inhibition call with S. aureus RN4220 is “inactive”.

In the case of `O=C(C[C@H]1C=C[C@@H](NC(=O)C2CCC2)[C@@H](CO)O1)NCCCN1CCOCC1`, the cytotoxicity call in the test with HSkMC and in the test with HepG2 was “inactive” in each case. For the same compound, the growth inhibition call in the test with S. aureus RN4220 is “inactive”.

Consider `NC[C@@H](c1cccnc1)S(=O)(=O)c1ccc(Cl)cc1`, for which the cytotoxicity call in the test on HSkMC and in the test on HepG2 was “inactive” throughout. For the same compound, the growth inhibition call with S. aureus RN4220 was “inactive”.

With `C[C@@H]1CCCCO[C@@H](CN(C)C(=O)NC2CCCCC2)[C@@H](C)CN([C@@H](C)CO)C(=O)c2cc(NC(=O)CCC(F)(F)F)ccc2O1`, the cytotoxicity call with HSkMC and with HepG2 was “inactive” in each case. Besides, the growth inhibition call in the test on S. aureus RN4220 is “inactive”.

Consider `COCCOC(=O)N1C(=O)[C@@]2(c3cc(C#CC4=CCCCC4)ccc31)[C@H](c1ccccc1OCCO)N1[C@H](c3ccccc3)[C@H](c3ccccc3)OC(=O)[C@H]1[C@@H]2C(=O)N1CCCCCCC1`, for which the cytotoxicity call with HSkMC and in the test with HepG2 was “inactive” throughout. The growth inhibition call with S. aureus RN4220 was “inactive”.

As for `C[C@H](CO)N1C[C@H](C)[C@@H](CN(C)Cc2ccccn2)Oc2ncc(C#Cc3ccc(F)cc3)cc2C1=O`, the cytotoxicity call in the test on HSkMC and in the test on HepG2 was “inactive” throughout. For the same compound, the growth inhibition call in the test on S. aureus RN4220 was “inactive”.

Consider `O=C(CN1CCOCC1)N[C@@H]1CC[C@@H](CCn2cc(C3CCCC3)nn2)O[C@H]1CO`, for which the cytotoxicity call with HSkMC and in the test with HepG2 was “inactive” throughout. For the same compound, the growth inhibition call in the test on S. aureus RN4220 was “inactive”.

For `COc1ccccc1CNC(=O)C[C@@H]1C[C@H]2c3cc(NC(=O)Nc4ccc(C(F)(F)F)cc4)ccc3O[C@H]2[C@@H](CO)O1`, in the test with HSkMC, the cytotoxicity call is “inactive”. Besides, in the test on HepG2, the cytotoxicity call was “active”. The growth inhibition call in the test with S. aureus RN4220 was “inactive”.

Take `C[C@H]1CN([C@@H](C)CO)C(=O)c2cccc(NC(=O)NC3CCCCC3)c2O[C@H]1CN(C)S(=O)(=O)c1cn(C)cn1`: the cytotoxicity call in the test on HSkMC and with HepG2 was “inactive” in each case. For the same compound, the growth inhibition call with S. aureus RN4220 was “inactive”.

Turning to `CCOC(=O)N(C)C[C@@H]1OCc2cn(nn2)CCCC(=O)N([C@@H](C)CO)C[C@@H]1C`, the cytotoxicity call in the test on HSkMC and in the test on HepG2 was “inactive” each time. In addition, the growth inhibition call in the test on S. aureus RN4220 was “inactive”.

In the case of `C[C@@H]1CN([C@@H](C)CO)C(=O)Cc2cc(NC(=O)CCCCCC(=O)Nc3ccccc3N)ccc2O[C@H]1CN(C)C(=O)Nc1ccc(C(F)(F)F)cc1`, the cytotoxicity call in the test on HSkMC and with HepG2 was “inactive” in each case. For the same compound, the growth inhibition call in the test with S. aureus RN4220 is “inactive”.

Consider `CCO[C@@H]1OC(C(=O)N2CCOCC2)=C[C@H](c2ccccc2)[C@H]1CCCOC(=O)NCCCCCC(=O)NO`, for which the cytotoxicity call in the test with HSkMC and with HepG2 was “inactive” throughout. In addition, the growth inhibition call in the test on S. aureus RN4220 is “inactive”.

On to `COCCOC(=O)N1C(=O)[C@@]2(c3cc(C#Cc4ccc(OC)cc4)ccc31)[C@H](c1ccc(O)cc1)N1[C@H](c3ccccc3)[C@H](c3ccccc3)OC(=O)[C@H]1[C@@H]2C(=O)N1CCc2cc(OC)c(OC)cc2C1`, for which the cytotoxicity call in the test with HSkMC and in the test with HepG2 was “inactive” in each case. Moreover, the growth inhibition call with S. aureus RN4220 was “inactive”.

With `C[C@H]1CCCCO[C@H](CN(C)C(=O)Nc2cccc3ccccc23)[C@@H](C)CN([C@@H](C)CO)C(=O)c2cc(NC(=O)c3ccccc3)ccc2O1`, the cytotoxicity call in the test on HSkMC and in the test with HepG2 was “inactive” in each case. The growth inhibition call with S. aureus RN4220 is “inactive”.

With `O=C(CN1CCOCC1)N[C@H]1CC[C@H](CCNC(=O)C2CCC2)O[C@H]1CO`, the cytotoxicity call in the test with HSkMC and in the test on HepG2 was “inactive” in each case. For the same compound, in the test on S. aureus RN4220, the growth inhibition call was “inactive”.

For the compound `Cc1ccc(S(=O)(=O)Nc2ccc3c(c2)CC(=O)N([C@@H](C)CO)C[C@@H](C)[C@@H](CN(C)S(=O)(=O)c2ccccc2)O3)cc1`, the cytotoxicity call with HSkMC and in the test on HepG2 was “inactive” each time. In the test with S. aureus RN4220, the growth inhibition call is “inactive”.

On to `C[C@@H]1CN([C@@H](C)CO)C(=O)c2cc(C#Cc3ccccc3)cnc2O[C@H]1CN(C)S(=O)(=O)c1ccccc1F`, for which, in the test on HSkMC, the cytotoxicity call is “inactive”. Besides, in the test with HepG2, the cytotoxicity call was “active”. Further, the growth inhibition call with S. aureus RN4220 is “inactive”.

With `Cc1ccc(S(=O)(=O)Nc2ccc3c(c2)C(=O)N([C@@H](C)CO)C[C@@H](C)[C@@H](CN(C)C(=O)NC2CCCCC2)OCCCC[C@@H](C)O3)cc1`, the cytotoxicity call in the test on HSkMC (human skeletal muscle cells) and in the test on HepG2 was “inactive” throughout. The growth inhibition call with S. aureus RN4220 is “inactive”.
